Results: a collection of fitness landscapes (doi:10.1016/j.celrep.2020.107928)
Over roughly 81,000 sequences, “one-hybrid fitness for binding parS DNA” has its median near -0.17; the highest 2% begin near 0.51. Some of the results follow.

B1: Caulobacter ParB omega fusion; a variant is named by its letters at X, in order, B8GW30 (parent)
chain: MESVVVGEPGMSEGRRGLGRGLSALLGEVDAAPAQAPGEQLGGSREAPIEILQRNPDQPRRTFREEDLEDLSNSIREKGVLQPILVRPSPDTAGEYQIVAGERAWRAAQRAGLKTVPIMVRELDDLAVLEIGIIENVQRADLNVLEEALSYKVLMEKFERTQENIAQTIGKSXSHVANXMRLLXLPDEVQSYLVSGELTAXHARAIAAAADPVALAKQIIEGGLSVRETEALARKAPNLSAGKSKGGRPPRVKDTDTQALESDLSSVLGLDVSIDHRGSTGTLTITYATLEQLDDLCNRLTRGI

Variants of: B1
Test: one-hybrid fitness for binding parS DNA (scaled: cognate 1, non-cognate 0); higher = stronger binding
Details: with parS DNA site
In short: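 Values were rescaled so that cognate is 1 and non-cognate is 0. Each is a fitness, the log change in a variant's read ratio to wild type from Illumina reads of plasmids before and after selection, with three replicate libraries pooled and variants under 10 reads dropped. Selection of the Caulobacter ParB libraries, four specificity codons randomised, used E. coli USO with a HIS3 reporter, site 19 bp from the promoter, on M9-minus-histidine with 0.1 mM IPTG and 5 mM 3-AT for 48 hours at 37°C.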

| Variant | one-hybrid fitness for binding parS DNA |
| --- | --- |
| PLNN | ≤ 0.2 |
| HVCT | ≤ 0.2 |
| RYKV | ≤ 0.2 |
| CSKH | ≤ 0.2 |
| RCVT | 0.843 |
| RGYY | ≤ 0.2 |
| PGRW | ≤ 0.2 |
| ETTA | ≤ 0.2 |
| AEFG | ≤ 0.2 |
| GNFG | ≤ 0.2 |
| MQSV | ≤ 0.2 |
| QHRE | ≤ 0.2 |
| EWST | ≤ 0.2 |
| PQVG | ≤ 0.2 |
| LSHS | ≤ 0.2 |
| LRYM | ≤ 0.2 |
| PSLE | ≤ 0.2 |
| DTDW | ≤ 0.2 |
| SAVG | ≤ 0.2 |
| GHTA | ≤ 0.2 |
| NRIT | ≤ 0.2 |
| QTAW | ≤ 0.2 |
| TDYT | 0.223 |
| MITC | ≤ 0.2 |
| HRPD | ≤ 0.2 |

| Variant | one-hybrid fitness for binding parS DNA |
| --- | --- |
| EPTE | ≤ 0.2 |
| SWKL | ≤ 0.2 |
| TPNE | ≤ 0.2 |
| SMAA | ≤ 0.2 |
| VADE | ≤ 0.2 |
| QDVE | ≤ 0.2 |
| QDYS | ≤ 0.2 |
| SGAK | ≤ 0.2 |
| HCVR | ≤ 0.2 |
| VWVS | ≤ 0.2 |
| VACT | ≤ 0.2 |
| TYYH | ≤ 0.2 |
| HNHV | ≤ 0.2 |
| QLKD | ≤ 0.2 |
| VNRS | ≤ 0.2 |
| VRAD | ≤ 0.2 |
| WREW | ≤ 0.2 |
| RYQP | ≤ 0.2 |
| LEFS | ≤ 0.2 |
| PNTP | ≤ 0.2 |
| SRIH | ≤ 0.2 |
| LFDE | ≤ 0.2 |
| MMIS | ≤ 0.2 |
| ELCL | ≤ 0.2 |
| IDHN | ≤ 0.2 |

| Variant | one-hybrid fitness for binding parS DNA |
| --- | --- |
| RGMV | ≤ 0.2 |
| EFPF | ≤ 0.2 |
| YQPD | ≤ 0.2 |
| YPSY | ≤ 0.2 |
| LHTC | ≤ 0.2 |
| WAWL | ≤ 0.2 |
| NRMA | ≤ 0.2 |
| QQEM | ≤ 0.2 |
| FQYS | ≤ 0.2 |
| RNVQ | ≤ 0.2 |
| DYNT | ≤ 0.2 |
| QRHA | ≤ 0.2 |
| RMIC | 0.926 |
| ICTE | ≤ 0.2 |
| KFSM | ≤ 0.2 |
| SEHA | ≤ 0.2 |
| QIVC | ≤ 0.2 |
| DRQS | ≤ 0.2 |
| SESN | ≤ 0.2 |
| STNM | ≤ 0.2 |
| SCAS | ≤ 0.2 |
| VQEP | ≤ 0.2 |
| QHLR | ≤ 0.2 |
| QHGQ | ≤ 0.2 |
| PSVC | ≤ 0.2 |

| Variant | one-hybrid fitness for binding parS DNA |
| --- | --- |
| VGHG | ≤ 0.2 |
| FLIS | ≤ 0.2 |
| FKRL | ≤ 0.2 |
| KYST | ≤ 0.2 |
| HSTT | ≤ 0.2 |
| AVWR | ≤ 0.2 |
| EHDV | ≤ 0.2 |
| IVNG | ≤ 0.2 |
| CIVL | ≤ 0.2 |
| VAPS | ≤ 0.2 |
| HFRT | ≤ 0.2 |
| QWVM | ≤ 0.2 |
| ECHA | ≤ 0.2 |
| GLKN | ≤ 0.2 |
| QATN | ≤ 0.2 |
| HPIY | ≤ 0.2 |
| CEVL | ≤ 0.2 |
| EFKR | ≤ 0.2 |
| VTRM | ≤ 0.2 |
| QPNI | ≤ 0.2 |
| SGLV | ≤ 0.2 |
| HVNV | ≤ 0.2 |
| HCEV | ≤ 0.2 |
| YQPR | ≤ 0.2 |
| YSAR | ≤ 0.2 |

| Variant | one-hybrid fitness for binding parS DNA |
| --- | --- |
| RWCF | ≤ 0.2 |
| PSPS | ≤ 0.2 |
| NRTD | ≤ 0.2 |
| LGKA | ≤ 0.2 |
| SHSY | ≤ 0.2 |
| MGER | ≤ 0.2 |
| CFHL | ≤ 0.2 |
| LHDT | ≤ 0.2 |
| PAGL | ≤ 0.2 |
| DTQS | ≤ 0.2 |
| YSYR | ≤ 0.2 |
| PAIL | ≤ 0.2 |
| RNYG | 0.789 |
| NHSW | ≤ 0.2 |
| LVWA | ≤ 0.2 |
| HTMS | ≤ 0.2 |
| KRFW | ≤ 0.2 |
| YVNI | ≤ 0.2 |
| QQRL | ≤ 0.2 |
| TSAC | ≤ 0.2 |
| TTSG | ≤ 0.2 |
| AIKK | ≤ 0.2 |
| SIGI | ≤ 0.2 |
| PYRD | ≤ 0.2 |
| TKYS | ≤ 0.2 |

| Variant | one-hybrid fitness for binding parS DNA |
| --- | --- |
| YTPM | ≤ 0.2 |
| KKRF | ≤ 0.2 |
| MIRN | ≤ 0.2 |
| RIVE | ≤ 0.2 |
| TIKF | ≤ 0.2 |
| SYCE | ≤ 0.2 |
| HNPL | ≤ 0.2 |
| ESDI | ≤ 0.2 |
| APTS | ≤ 0.2 |
| PPGM | ≤ 0.2 |
| EGGH | ≤ 0.2 |
| PQQR | ≤ 0.2 |
| DQRC | ≤ 0.2 |
| LELA | ≤ 0.2 |
| QLVT | ≤ 0.2 |
| PTKV | ≤ 0.2 |
| KCFF | ≤ 0.2 |
| QDQS | ≤ 0.2 |
| QMRV | ≤ 0.2 |
| HALA | ≤ 0.2 |
| KTHG | ≤ 0.2 |
| NVKC | ≤ 0.2 |
| EWKD | ≤ 0.2 |
| TQMT | ≤ 0.2 |
| STGQ | ≤ 0.2 |

| Variant | one-hybrid fitness for binding parS DNA |
| --- | --- |
| YCRC | ≤ 0.2 |
| CGVT | ≤ 0.2 |
| HTHG | ≤ 0.2 |
| NGDG | ≤ 0.2 |
| QMKA | ≤ 0.2 |
| PADW | ≤ 0.2 |
| LHKT | ≤ 0.2 |
| TYFP | ≤ 0.2 |
| SKGV | ≤ 0.2 |
| HRKA | ≤ 0.2 |
| QYDH | ≤ 0.2 |
| SCIG | ≤ 0.2 |
| KTRG | ≤ 0.2 |
| IETT | ≤ 0.2 |
| FVLC | ≤ 0.2 |
| SHAR | ≤ 0.2 |
| DVHS | ≤ 0.2 |
| AFTM | ≤ 0.2 |
| SNKD | ≤ 0.2 |
| IHAA | ≤ 0.2 |
| NISC | ≤ 0.2 |
| TSHI | ≤ 0.2 |
| RVEV | ≤ 0.2 |
| PNRS | ≤ 0.2 |
| DNAI | ≤ 0.2 |

| Variant | one-hybrid fitness for binding parS DNA |
| --- | --- |
| YADL | ≤ 0.2 |
| QPCG | ≤ 0.2 |
| TVTH | ≤ 0.2 |
| QPYC | ≤ 0.2 |
| SSGT | ≤ 0.2 |
| QFIR | ≤ 0.2 |
| PWLR | ≤ 0.2 |
| SLHM | ≤ 0.2 |
| AAFS | ≤ 0.2 |
| QKWV | ≤ 0.2 |
| YGKS | ≤ 0.2 |
| QQIC | ≤ 0.2 |
| LHTS | ≤ 0.2 |
| SASP | ≤ 0.2 |
| EFTQ | ≤ 0.2 |
| KRPA | ≤ 0.2 |
| NCFT | ≤ 0.2 |
| IHES | ≤ 0.2 |
| PPQP | ≤ 0.2 |
| QISA | ≤ 0.2 |
